According to publication PMC9911399, “Two distinct binding modes provide the RNA-binding protein RbFox with extraordinary sequence specificity”:
Changes are numbered by the printed parent chain; changes in the protein carry UniProt numbers. The list shows a part of the results.

B1: GUGCUCC (DNA:RNA)
RNA: GGGAGACCGGAAUUCAGAUUGUCCGUGCUCCUUAAAUCCCGUCGUAGCCACCA
DNA 1: CAATCTGAATTCCGGTCTCCC
DNA 2: TGGTGGCTACGACGGGATT
B2: GCCCCAU (DNA:RNA)
RNA: B1 RNA with U26C, G27C, U29C, C30A, C31U
DNA 1: CAATCTGAATTCCGGTCTCCC
DNA 2: TGGTGGCTACGACGGGATT
B3: AUAGGUA (DNA:RNA)
RNA: B1 RNA with G25A, G27A, C28G, U29G, C30U, C31A
DNA 1: CAATCTGAATTCCGGTCTCCC
DNA 2: TGGTGGCTACGACGGGATT
B4: AUCAGGC (DNA:RNA)
RNA: B1 RNA with G25A, G27C, C28A, U29G, C30G
DNA 1: CAATCTGAATTCCGGTCTCCC
DNA 2: TGGTGGCTACGACGGGATT
B5: UACCUAG (DNA:RNA)
RNA: B1 RNA with G25U, U26A, G27C, C30A, C31G
DNA 1: CAATCTGAATTCCGGTCTCCC
DNA 2: TGGTGGCTACGACGGGATT
B6: UACCAUG (DNA:RNA)
RNA: B1 RNA with G25U, U26A, G27C, U29A, C30U, C31G
DNA 1: CAATCTGAATTCCGGTCTCCC
DNA 2: TGGTGGCTACGACGGGATT
B7: UCACAGC (DNA:RNA)
RNA: B1 RNA with G25U, U26C, G27A, U29A, C30G
DNA 1: CAATCTGAATTCCGGTCTCCC
DNA 2: TGGTGGCTACGACGGGATT
B8: CAAGCAU (DNA:RNA)
RNA: GGGAGACCGGAAUUCAGAUUGUCCCAAGCAUUUAAAUCCCGUCGUAGCCACCA
DNA 1: CAATCTGAATTCCGGTCTCCC
DNA 2: TGGTGGCTACGACGGGATT
B9: UAUGAAU (DNA:RNA)
RNA: B8 RNA with C25U, A27U, C29A
DNA 1: CAATCTGAATTCCGGTCTCCC
DNA 2: TGGTGGCTACGACGGGATT
B10: UUGCUGA (DNA:RNA)
RNA: B1 RNA with G25U, C30G, C31A
DNA 1: CAATCTGAATTCCGGTCTCCC
DNA 2: TGGTGGCTACGACGGGATT
B11: UCCGACC (DNA:RNA)
RNA: B1 RNA with G25U, U26C, G27C, C28G, U29A
DNA 1: CAATCTGAATTCCGGTCTCCC
DNA 2: TGGTGGCTACGACGGGATT
B12: CAAAACU (DNA:RNA)
RNA: B8 RNA with G28A, C29A, A30C
DNA 1: CAATCTGAATTCCGGTCTCCC
DNA 2: TGGTGGCTACGACGGGATT
B13: UCCUUGA (DNA:RNA)
RNA: B1 RNA with G25U, U26C, G27C, C28U, C30G, C31A
DNA 1: CAATCTGAATTCCGGTCTCCC
DNA 2: TGGTGGCTACGACGGGATT
B14: AUAAAAU (DNA:RNA)
RNA: B8 RNA with C25A, A26U, G28A, C29A
DNA 1: CAATCTGAATTCCGGTCTCCC
DNA 2: TGGTGGCTACGACGGGATT
B15: GUCGGUG (DNA:RNA)
RNA: B1 RNA with G27C, C28G, U29G, C30U, C31G
DNA 1: CAATCTGAATTCCGGTCTCCC
DNA 2: TGGTGGCTACGACGGGATT
B16: AUAAGGC (DNA:RNA)
RNA: B1 RNA with G25A, G27A, C28A, U29G, C30G
DNA 1: CAATCTGAATTCCGGTCTCCC
DNA 2: TGGTGGCTACGACGGGATT
B17: CGGAUUC (DNA:RNA)
RNA: B1 RNA with G25C, U26G, C28A, C30U
DNA 1: CAATCTGAATTCCGGTCTCCC
DNA 2: TGGTGGCTACGACGGGATT
B18: GCACCUG (DNA:RNA)
RNA: B8 RNA with C25G, A26C, G28C, A30U, U31G
DNA 1: CAATCTGAATTCCGGTCTCCC
DNA 2: TGGTGGCTACGACGGGATT
B19: CUUAACU (DNA:RNA)
RNA: B8 RNA with A26U, A27U, G28A, C29A, A30C
DNA 1: CAATCTGAATTCCGGTCTCCC
DNA 2: TGGTGGCTACGACGGGATT
B20: CCUGAAA (DNA:RNA)
RNA: B8 RNA with A26C, A27U, C29A, U31A
DNA 1: CAATCTGAATTCCGGTCTCCC
DNA 2: TGGTGGCTACGACGGGATT
B21: AGCACAU (DNA:RNA)
RNA: B8 RNA with C25A, A26G, A27C, G28A
DNA 1: CAATCTGAATTCCGGTCTCCC
DNA 2: TGGTGGCTACGACGGGATT
B22: GCACUUC (DNA:RNA)
RNA: B1 RNA with U26C, G27A, C30U
DNA 1: CAATCTGAATTCCGGTCTCCC
DNA 2: TGGTGGCTACGACGGGATT
B23: UGACUAA (DNA:RNA)
RNA: B8 RNA with C25U, A26G, G28C, C29U, U31A
DNA 1: CAATCTGAATTCCGGTCTCCC
DNA 2: TGGTGGCTACGACGGGATT
B24: AAUUCUC (DNA:RNA)
RNA: B8 RNA with C25A, A27U, G28U, A30U, U31C
DNA 1: CAATCTGAATTCCGGTCTCCC
DNA 2: TGGTGGCTACGACGGGATT
B25: AACUGAU (DNA:RNA)
RNA: B8 RNA with C25A, A27C, G28U, C29G
DNA 1: CAATCTGAATTCCGGTCTCCC
DNA 2: TGGTGGCTACGACGGGATT
B26: CCCUGUU (DNA:RNA)
RNA: B8 RNA with A26C, A27C, G28U, C29G, A30U
DNA 1: CAATCTGAATTCCGGTCTCCC
DNA 2: TGGTGGCTACGACGGGATT
B27: ACUUUAU (DNA:RNA)
RNA: B8 RNA with C25A, A26C, A27U, G28U, C29U
DNA 1: CAATCTGAATTCCGGTCTCCC
DNA 2: TGGTGGCTACGACGGGATT
B28: AUCCGAC (DNA:RNA)
RNA: B1 RNA with G25A, G27C, U29G, C30A
DNA 1: CAATCTGAATTCCGGTCTCCC
DNA 2: TGGTGGCTACGACGGGATT
B29: AAAGUCG (DNA:RNA)
RNA: B8 RNA with C25A, C29U, A30C, U31G
DNA 1: CAATCTGAATTCCGGTCTCCC
DNA 2: TGGTGGCTACGACGGGATT
B30: GACUAGU (DNA:RNA)
RNA: B8 RNA with C25G, A27C, G28U, C29A, A30G
DNA 1: CAATCTGAATTCCGGTCTCCC
DNA 2: TGGTGGCTACGACGGGATT
B31: AGUGGUU (DNA:RNA)
RNA: B8 RNA with C25A, A26G, A27U, C29G, A30U
DNA 1: CAATCTGAATTCCGGTCTCCC
DNA 2: TGGTGGCTACGACGGGATT

Molecular target: T1, RBFOX1 RRM (Homo sapiens, UniProt Q9NWB1 109-208)
T1 sequence: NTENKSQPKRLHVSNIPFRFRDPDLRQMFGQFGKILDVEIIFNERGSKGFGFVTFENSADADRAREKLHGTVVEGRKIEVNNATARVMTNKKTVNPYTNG
Assay: EMSA; HiTS-Eq, 1 nM pool, 10 min; buffer printed only for the single-RNA assays: 10 mM Tris pH 7.5, 150 mM NaCl, 3.4 mM EDTA, 0.001% NP-40, 30 C
Details: tags: His6 N-terminal (pET28a); label: 5' 32P
Procedure, shortened: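 Purified RbFox RRM (wild type or mutant) was equilibrated for 10 min in 50 µL with 1 nM of a 5′-radiolabelled pool of RNA with 7 randomized nucleotides, its flanks annealed to DNA oligonucleotides, across increasing protein concentrations. Free RNA was separated by 8% native PAGE, excised, reverse-transcribed, PCR-barcoded and sequenced on an Illumina HiSeq 2500. Relative association constants came from read-count changes of each variant against the control reaction, normalised to the cognate motif.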

B1 was tested. Which binding signal did it give?
The binding signal was 0.0357 KA relative to UGCAUGU.

With B2 as the binder, how does the binding signal read?
The binding signal was 0.00315 KA relative to UGCAUGU.

B3 was tested. Which binding signal did it give?
Its binding signal is 0.00676 KA relative to UGCAUGU.

How did the binding signal turn out when B4 was run?
Its binding signal is 0.00771 KA relative to UGCAUGU.

How did the binding signal turn out when B5 was run?
The binding signal was 0.00611 KA relative to UGCAUGU.

For B6, which binding signal is on record?
Its binding signal is 0.00789 KA relative to UGCAUGU.

B7 was tested. Which binding signal did it give?
Its binding signal is 0.00287 KA relative to UGCAUGU.

Which binding signal does the source give for B8 here?
Its binding signal is 0.00436 KA relative to UGCAUGU.

Which binding signal does the source give for B9 here?
The binding signal was 0.0106 KA relative to UGCAUGU.

B10 was tested. Which binding signal did it give?
The binding signal was 0.0257 KA relative to UGCAUGU.

With B11 as the binder, how does the binding signal read?
The binding signal was 0.00442 KA relative to UGCAUGU.

B12 was tested. Which binding signal did it give?
Its binding signal is 0.000609 KA relative to UGCAUGU.

B13 was tested. Which binding signal did it give?
The binding signal was 0.0113 KA relative to UGCAUGU.

B14 was tested. Which binding signal did it give?
Its binding signal is 0.000429 KA relative to UGCAUGU.

B15 was tested. Which binding signal did it give?
Its binding signal is 0.0254 KA relative to UGCAUGU.

How did the binding signal turn out when B16 was run?
Its binding signal is 0.00556 KA relative to UGCAUGU.

How did the binding signal turn out when B17 was run?
Its binding signal is 0.0273 KA relative to UGCAUGU.

B18 was tested. Which binding signal did it give?
The binding signal was 0.0149 KA relative to UGCAUGU.

B19 was tested. Which binding signal did it give?
The binding signal was 0.0019 KA relative to UGCAUGU.

Which binding signal does the source give for B20 here?
Its binding signal is 0.00997 KA relative to UGCAUGU.

Which binding signal does the source give for B21 here?
The binding signal was 0.00794 KA relative to UGCAUGU.

B22 was tested. Which binding signal did it give?
The binding signal was 0.00902 KA relative to UGCAUGU.

How did the binding signal turn out when B23 was run?
The binding signal was 0.00904 KA relative to UGCAUGU.

With B24 as the binder, how does the binding signal read?
The binding signal was 0.00325 KA relative to UGCAUGU.

Which binding signal does the source give for B25 here?
Its binding signal is 0.00404 KA relative to UGCAUGU.

Which binding signal does the source give for B26 here?
Its binding signal is 0.00725 KA relative to UGCAUGU.

How did the binding signal turn out when B27 was run?
The binding signal was 0.00113 KA relative to UGCAUGU.

For B28, which binding signal is on record?
The binding signal was 0.00467 KA relative to UGCAUGU.

B29 was tested. Which binding signal did it give?
Its binding signal is 0.00628 KA relative to UGCAUGU.

Which binding signal does the source give for B30 here?
Its binding signal is 0.0156 KA relative to UGCAUGU.

B31 was tested. Which binding signal did it give?
The binding signal was 0.0187 KA relative to UGCAUGU.
